# Experimental data reported in publication PMC4336329 (PLoS ONE, 2015).
# Among all 310,000 compounds or so, about 2,200 (0.71%) showed an effect of 50% or more. Effects have a minus sign here. The list shows a part of the results.
# Molecular target: human ether-à-go-go-related gene (hERG) potassium channel (human, UniProt Q12809)
# Assay: primary screen, population patch clamp on CHO cells stably expressing hERG
# human ether-à-go-go-related gene (hERG) potassium channel, sequence (Q12809 whole entry, looked up): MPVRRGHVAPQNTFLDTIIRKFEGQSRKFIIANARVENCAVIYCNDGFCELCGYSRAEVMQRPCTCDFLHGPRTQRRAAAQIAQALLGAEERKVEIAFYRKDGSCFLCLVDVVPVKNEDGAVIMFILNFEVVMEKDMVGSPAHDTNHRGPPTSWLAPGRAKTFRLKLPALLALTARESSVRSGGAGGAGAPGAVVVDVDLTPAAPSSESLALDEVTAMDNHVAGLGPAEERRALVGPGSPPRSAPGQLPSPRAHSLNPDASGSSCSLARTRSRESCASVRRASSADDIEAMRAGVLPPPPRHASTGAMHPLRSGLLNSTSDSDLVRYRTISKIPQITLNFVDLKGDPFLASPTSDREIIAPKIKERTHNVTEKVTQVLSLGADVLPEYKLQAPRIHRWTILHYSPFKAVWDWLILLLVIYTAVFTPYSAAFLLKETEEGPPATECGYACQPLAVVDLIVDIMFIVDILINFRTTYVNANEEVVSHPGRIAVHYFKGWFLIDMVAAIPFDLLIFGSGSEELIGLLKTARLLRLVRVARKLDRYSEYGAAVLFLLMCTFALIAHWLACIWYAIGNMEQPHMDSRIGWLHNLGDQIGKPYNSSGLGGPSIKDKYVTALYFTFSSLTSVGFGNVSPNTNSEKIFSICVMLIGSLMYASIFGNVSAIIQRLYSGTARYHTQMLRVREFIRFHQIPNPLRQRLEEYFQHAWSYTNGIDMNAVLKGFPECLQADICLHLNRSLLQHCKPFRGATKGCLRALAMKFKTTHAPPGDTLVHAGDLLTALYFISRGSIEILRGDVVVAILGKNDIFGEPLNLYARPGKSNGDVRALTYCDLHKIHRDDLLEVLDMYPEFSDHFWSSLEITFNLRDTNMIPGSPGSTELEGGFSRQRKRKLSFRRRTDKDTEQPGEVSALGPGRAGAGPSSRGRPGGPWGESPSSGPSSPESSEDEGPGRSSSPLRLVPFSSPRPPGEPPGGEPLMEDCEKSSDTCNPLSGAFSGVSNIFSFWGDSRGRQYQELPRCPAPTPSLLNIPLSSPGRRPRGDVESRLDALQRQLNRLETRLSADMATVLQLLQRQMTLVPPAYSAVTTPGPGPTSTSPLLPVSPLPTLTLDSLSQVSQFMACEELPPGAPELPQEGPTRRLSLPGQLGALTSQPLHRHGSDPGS
row,SMILES,"hERG current change (%, negative = inhibition) at 1uM [%]"
1,CC(C)c1ccc(C2(C)NC(=O)N(CC(=O)NCC3COc4ccccc4O3)C2=O)cc1 (stereo not shown),-2.67
2,Cc1cccc(N(C(=O)CNC(=O)c2ccco2)C(C(=O)NC2CCCC2)c2cccnc2)c1C (stereo not shown),14.2
3,O=C(O)c1cn(CCOc2ccccc2Cl)c2ccccc12,17.7
4,CCC(C)N(C(=O)CSc1ncnc2sccc12)C1CCS(=O)(=O)C1 (stereo not shown),6.08
5,Cc1cccc(N2CCN(C(=O)c3ccc(-n4cncn4)c([N+](=O)[O-])c3)CC2)c1C,-7.83
6,O=c1oc2ccccc2n1Cc1cccc(F)c1,7.2
7,Cc1cc(C)nc(SCCC(=O)Nc2ccccc2Cl)n1,15.8
8,NC(=O)CC(NC(=O)Cc1ccc(Br)cc1)c1ccc(NCc2ccc(F)cc2)c([N+](=O)[O-])c1 (stereo not shown),7.17
9,CCn1c(SC)nnc1-c1nnc(SC)n1CC,3.59
10,COc1cc(C2(c3ccc(O)c(OC)c3)C(=O)N(C)c3ccc(Br)cc32)ccc1O,-12.7
11,Oc1ccc(Cl)cc1-c1cc(-c2ccccc2Cl)[nH]n1,12.3
12,CCc1ccccc1NC(=O)N[C@@H](C)C(=O)OC,4.52
13,COc1ccc(N2C3=C(CC4=C2CC(C)(C)CC4=O)C(=O)CC(C)(C)C3)cc1,10.9
14,CCOC(=O)Nc1sc(C)c(C)c1C(N)=O,13.4
15,O=C(Nc1ccc([N+](=O)[O-])cn1)c1ccc2c(c1)OCO2,24.5
16,COC(=O)CN(c1ccc(C)c(Cl)c1)S(C)(=O)=O,11.7
17,CC(C)Sc1nnc(NC(=O)CCc2ccccc2)s1,2.16
18,COc1cc(/C=C/c2cc(C(=O)O)c3ccccc3n2)cc(OC)c1O,11.6
19,COc1ccc(C(=O)NCC(=O)N/N=C/c2cn[nH]c2-c2ccccc2)cc1,6.32
20,O=C(O)CCc1ccc(-c2ccccc2)n1NC(=O)c1cccs1,23.7
21,O=C(CSc1nnc(-c2ccc3c(c2)OCO3)n1-c1ccccc1)c1ccc(Cl)cc1,12.4
22,COc1cccc(NC(=O)C23CCC(C)(C(=O)O2)C3(C)C)c1 (stereo not shown),4.01

row,SMILES,"hERG current change (%, negative = inhibition) at 1uM [%]"
1,COc1ccc(CCNC(=O)/C=C/c2cc(OC)c(OC)c(OC)c2)cc1OC,4.08
2,COc1cc(CNC(=O)C2CC2)ccc1OCc1ccccc1,3.28
3,COc1cccc(/C=C2/NC(=O)NC2=O)c1OCC(=O)Nc1ccccc1,7.2
4,CCCCN(CC)c1nc(-c2ccncc2)nc2ccccc12,7.37
5,Cc1ccc(C2=[N+]([O-])C(C)N(O)C2(C)C)o1 (stereo not shown),1.98
6,CN1C(=O)C(=Cc2cc([N+](=O)[O-])ccc2N2CCCCC2)C(=O)N(C)C1=O,10.8
7,O=C(COC(=O)CCc1nc2ccccc2c(=O)[nH]1)Nc1ccccc1OC(F)F,24.2
8,CCOc1ccc(S(=O)(=O)NCCC(=O)NCCc2ccc(OCC)c(OCC)c2)cc1,18.2
9,CC(c1ccccc1)C1CC(=O)N(Cc2ccco2)C1=O (stereo not shown),21.3
10,COc1cc(C(=O)Nc2nc(OC)c(-c3ccccc3)c(OC)n2)cc(OC)c1OC,6.73
11,CC1=C(C(=O)N(C)C)C(c2cccs2)NC(=O)N1 (stereo not shown),14.6
12,COc1cccc(C(C(=O)NC2CCCC2)N(C(=O)c2csnn2)C2CC2)c1 (stereo not shown),3.71
13,COc1ccc(CNC(=O)C2CCCN2C(=O)NCc2ccccc2)cc1 (stereo not shown),4.76
14,Cn1c(=O)n(CCCO)c(=O)c2c1nc1n2CCCN1Cc1ccccc1,3.27
15,CCOC(=O)c1c(NC(C)=O)sc2c(OCCN(CC)CC)c(Br)ccc12,-7.79
16,COc1ccc(/C=C/C(=O)Nc2ccccc2)cc1S(=O)(=O)N1CCOCC1,-14.4
17,CN1CCN(CC(=O)NC23CC4CC(CC(C4)C2)C3)CC1.Cl,12.2
18,COc1cc(NC(=O)C2COc3ccccc3O2)c(OC)cc1Cl (stereo not shown),13.8
19,Cc1ccc(CNC(=O)COC(=O)COc2ccc(C#N)cc2)cc1,8.73
20,COc1ccc(Cl)cc1NC(=O)CN(C)C(=O)C1CC(=O)N(Cc2ccc(C)cc2)C1 (stereo not shown),-18.2
21,O=C(CN1N=C(c2ccc(Cl)cc2)CCC1=O)NCCN1CCc2ccccc2C1,-6.5
22,CC(C)N(C(=O)CN(C#N)c1nc(N(C)C)nc(N(C)C)n1)c1ccccc1,-6.19

row,SMILES,"hERG current change (%, negative = inhibition) at 1uM [%]"
1,CCN(CC)S(=O)(=O)c1ccc(NC(=O)c2cccs2)cc1,-0.224
2,NS(=O)(=O)c1ccc(O)c(N2C(=O)c3cccc4c(C(=O)O)ccc(c34)C2=O)c1,10.3
3,CCCCNC(=O)Nc1ccc(C2SCCS2)cc1,12.2
4,COc1cccc(C(=O)Nc2ccc(-n3nncc3C(C)(C)C)cc2)c1,-0.351
5,OC(CN1CCCCC1)Cn1c2ccccc2c2ccccc21 (stereo not shown),9.84
6,COCCOC(=O)c1c(C)oc2ccc(OCC=C(C)C)cc12,13.8
7,COC(=O)c1ccccc1NC(=O)C1CC(=O)N(c2ccc(OC)cc2)C1 (stereo not shown),0.656
8,CC(=O)Oc1ccc(/C=N/NC(=O)c2ccc(N(C)S(=O)(=O)c3ccccc3)cc2)cc1,13.4
9,CCc1ccc(C(=O)NC(=S)Nc2ccccc2N2CCOCC2)cc1,9.94
10,CCc1ccccc1NC(=O)c1cc2sccc2n1C,1.09
11,Brc1ccc2[nH]c3c(c2c1)CCC3,15.8
12,Cc1cccc(CN2CCCC(C(=O)Nc3ccccc3Oc3cccnc3)C2)c1 (stereo not shown),-0.213
13,CCCCNC(=O)C(Sc1ccccc1)c1ccccc1 (stereo not shown),12.2
14,COc1ccc(/C(N)=N/OC(=O)Cc2ccccc2OC)cc1,12.9
15,COc1ccc(NC(=O)C2CCN(S(=O)(=O)c3ccc4c(c3)CC(C)N4C(C)=O)CC2)cc1OC (stereo not shown),14.6
16,COc1ccccc1NC(=O)CN1CCN(CC(=O)Nc2ccc(OC)c(OC)c2)CC1,12
17,Cc1ccc(Cn2nnc3c(=O)n(CC(=O)N4CCCc5ccccc54)cnc32)cc1,7.05
18,Cc1cc(NC(=O)NCc2ccccc2)c(=O)n(Cc2ccccc2F)c1,7.05
19,CCn1c(=O)c([N+](=O)[O-])c(NCCc2ccccc2)c2ccccc21,15.1
20,COc1cc(C(=O)N/N=C/c2ccc(OC(=O)c3ccccc3)c(OC)c2)ccc1O,14.9
21,C#CCNC(=O)C1=C[C@@H](c2ccc(Br)cc2)[C@H](CCCO)[C@@H](OCC)O1,4.79
22,Cc1ccc(Cl)c2sc(NC(=O)C3=COCCO3)nc12,13.6

row,SMILES,"hERG current change (%, negative = inhibition) at 1uM [%]"
1,O=CNC1CCCc2c1[nH]c1ccc(Cl)cc21 (stereo not shown),0.149
2,O=C(CCN1CCN(S(=O)(=O)c2ccc(Cl)cc2)CC1)Nc1ccc(F)cc1,-5.27
3,Cc1cc2ncn(CC(O)COC3CCCCC3)c2cc1C (stereo not shown),1.09
4,Cc1ccc(CN2CC(C(=O)OCc3ccccc3Cl)CC2=O)cc1 (stereo not shown),13.3
5,CCS(=O)(=O)N1CCN(c2ccc(C(=O)NC34CC5CC(CC(C5)C3)C4)cc2[N+](=O)[O-])CC1,13.5
6,COc1cc(NC(=O)C2C3CCC(O3)C2C(=O)O)cc(OC)c1 (stereo not shown),20.4
7,Cc1cccn2cc(-c3ccc4c(c3)NC(=O)CO4)nc12,-9.13
8,CCc1ccc(S(=O)(=O)/N=C2\C=CC(=O)c3ccccc32)cc1,4.67
9,O=C(Cn1nc(CNc2ccc(Cl)cc2)[n+]2c1CCCCC2)c1ccccc1.[Br-],7.42
10,S=C(NC1CCCCC1)N1CCN(C/C=C/c2ccccc2)CC1,3.77
11,COc1ccc(C(CCNCc2ccc(OC)c(OC)c2)c2ccc(F)cc2)cc1 (stereo not shown),-17.3
12,O=P(NC(c1ccccc1)c1ccccc1)(Oc1ccccc1)Oc1ccccc1,1.26
13,Cn1cccc1CC(=O)N/N=C/c1ccc(Cl)cc1,13.2
14,COc1cc(-c2cc(-c3ccc(F)cc3)nc(N)c2C#N)ccc1O,12.9
15,Cc1cc(C)n(-c2ccc(C(=O)OCC(=O)Nc3ccc(S(=O)(=O)N4CCCCC4)cc3)cc2)n1,12.9
16,COc1ccc2c3c([nH]c2c1)C(C)NCC3 (stereo not shown),-0.283
17,COc1cc2c(C)nc3c(cnn3-c3ccccc3)c2cc1OC,-12.2
18,CC(=O)C[C@H]1c2cc(C(F)(F)F)ccc2S(=O)(=O)N1C1CCCCC1,19.9
19,CC(C)COC(=O)N1CC(O)CC1C(=O)Nc1ccc2c(c1)OCO2 (stereo not shown),7.4
20,CCOc1ccc(CCNC(=O)C2CCCN(S(=O)(=O)N3CCOCC3)C2)cc1OCC (stereo not shown),5.6
21,COC(=O)c1sccc1NC(=O)Cn1nnc(-c2ccc(C)cc2)n1,8.1
22,CCOc1cc(C(=O)NC(=S)Nc2cccnc2)cc(OCC)c1OCC,4.17
